Experimental findings from PubChem BioAssay AID463173 (ICCB-Longwood Screening Facility, Harvard Medical School, 2010) are described below.

Among all 52,000 compounds or so, about 1,700 (3.3%) were called active. Rule as the data show it: active = survival mostly below about 52% (no sharp cut-off); inactive = mostly above about 56%. The list shows a part of the results.

The assay has as its system Wild type. Put plainly: S. aureus survival, RN4220 and DeltatarO strains – OD600, teichoic acid synthesis inhibitors, primary screen (AID 463173). The conditions noted are these: S. aureus RN4220 wild type/DeltatarO growth, OD600, 18 h, active compounds read low, screened at 18.75 µg/mL (by protocol).
In the case of `CC(C)c1ccc(C2N3CC4(C)CN2CC(c2ccccc2)(C3)C4=O)cc1` (centres undefined), the survival was inactive: 97%. As for `CCc1ccc(NC(=O)c2cc(C(C)=O)n3ccccc23)cc1`, the figure is inactive: 51%; as for `CCOC(=O)c1scc(-c2ccccc2)c1S(=O)(=O)Nc1ccccc1F`, inactive: 129%; as for `Clc1cccc(N2CCN(c3ncnc4c3nc3n4CCCCC3)CC2)c1`, active: 3%. As for `CCc1nn(-c2ccccc2)c2nc(-c3ccccc3OC)c3cc(OC)c(OC)cc3c12`, the figure is inactive: 113%; as for `CCCc1nn2c(=O)cc(COC(=O)c3cccc(NC(=O)COc4ccc(F)cc4)c3)nc2s1`, inactive: 80%; as for `O=C(Cn1c(=O)oc2cc(S(=O)(=O)N3CCCCC3)ccc21)Nc1cccc(Cl)c1`, inactive: 98%.

Consider `CCCCN1C(=O)c2[nH]nc(-c3ccccc3O)c2C1c1cccc(OCc2ccccc2)c1` (centres undefined), for which the survival is inactive: 52%. Regarding `Cc1nc(-c2ccc(Cl)cc2)sc1CCNC(=O)C(=O)Nc1ccc(F)cc1F`, the survival is inactive: 102%. The figure for `Cc1cc(C)c(Cn2c3ccccc3c3cnn(CC(=O)NC4CCC(C)CC4)c(=O)c32)c(C)c1` (centres undefined) is inactive: 69%. As for `O=C(O)c1cc(NC2(c3ccccc3)C(=O)c3ccccc3C2=O)ccc1Cl`, the figure is inactive: 68%; as for `Cc1ccccc1NC(=O)c1ccc(F)c(S(=O)(=O)N(C)Cc2ccccc2)c1`, inactive: 66%; as for `Cc1ccc(Cn2c(C(=O)O)c(CNCc3ccccc3Cl)c3ccc(C)cc32)cc1`, inactive: 83%. Regarding `CCc1ccc(NC(=O)CN2CCN(Cc3ccccc3)S2(=O)=O)cc1`, the survival was inactive: 54%. The figure for `CCOC(=O)C1CCN(c2ncnc3c2c(-c2ccccc2)cn3-c2cccc(C)c2)CC1` is inactive: 67%; for `Cc1oc2c(c(C)cc3oc(=O)c(CC(=O)NCCc4ccccc4F)c(C)c32)c1C` it is inactive: 88%; for `CCOCc1cn(CC(=O)c2ccc(OC(C)=O)c(OC(C)=O)c2)c(C)nc1=N` it is inactive: 108%.

In the case of `Cc1cccc(NC(=O)CCCn2c(C)c3cnn(-c4ccccc4)c(=O)c3c2C)c1C`, the survival is inactive: 77%.

Regarding `Cc1ccccc1-n1c(SCC(=O)Nc2ccc(Cl)cc2F)nnc1-c1cc2occc2n1C`, the survival is inactive: 92%. Turning to `COc1cccc(NC(=O)C(C#N)Cc2cccs2)c1` (centres undefined), the survival was inactive: 98%. Turning to `Cc1ccc(C)n1-c1nnc(N2CCCC(C(=O)NCc3ccc(Cl)cc3)C2)s1` (centres undefined), the survival is inactive: 85%. The figure for `Cc1ccc(OCC(=O)Nc2ccc(S(=O)(=O)Nc3cc(C)nc(C)n3)cc2)c(Br)c1` is inactive: 108%; for `Cc1ccc(CN2CCc3nc(N4CCN(c5ncccn5)CC4)ncc3C2)cc1` it is inactive: 128%.

As to `COc1ccc(C2=CC(c3ccc(F)cc3)n3ncc(C(=O)Nc4ccc(C)cc4)c3N2)cc1` (centres undefined), the survival is inactive: 124%.
